Experimental findings from the supplement of paper PMC12632987 are described below.

Whole data set: some 4,500 sequences, median “median log2 fold change of GCK-ALFA target abundance (FLAG IP / Myc IP barcode read proportion)” near 0.078, cut for the lowest 2% near -0.6. Some of the results follow.

B1: GBRAP_35_5565 (protein)
chain: DFDETTAEMMANTIDALTEAVPDMDPATLLDITEKIMRAAKEVVEDIKDNKEALERLLKSLEALLAAIRAQGLDDPHLQAAAAAVQDVIDLARKAIAEAK
B2: GBRAP_160_4491 (protein)
chain: SAKVEEAKKEVKAIVDDAVDAIAEAPADQRAAIARAYAGDIVQTLLELGVVTDEQAETVLDTAEAGLAAVVAASAAGAAAAAAAAAALVATLNDMIKKFS
B3: GBRAP_160_4548 (protein)
chain: SEKVEELIKDLEERTEFLKELVGEVSTEELINAVSVEFGSFILEGIELGVLSDELEDKLDEITDKLIEELKANKNASVEEKKELIEKATEEAKKLIKEES
B4: GBRAP_137_3684 (protein)
chain: KTLYATIETIDGYRYVTIESDDESLAEELLDAVLDALDEHGLKATVASLVENGKAYVEIDFPTDTTKEQVLALLKDVAERLGADLVVKDLDTGETLEYKA
B5: GBRAP_52_6345 (protein)
chain: MLEEFKKKIEEILKLLKEGKEEEAKKKIEELAKSLKEEEIDTLIKAVAEVAAKVKKEDIDYMIKLVELLEDALLEAGHDEYDASLLESEAYKQLYKVEQK
B6: GBRAP_18_5403 (protein)
chain: TDEEFEAAWAALSEELQDFVAEAAADALSLEDEEERIEVLVEALVEAAEKVSPEEVRNALYLLATTVLSREEEKERLLERFIERRPELKEVAEAVLEELK
B7: GBRAP_80_6782 (protein)
chain: MEEEIEKAIEEIRKINPEVAEIVEEIVELLKEIGVPLEIILEIVQTILDGKDLPEEKLLEIAEEVLEFAKELAEEKDRLTPEEIGRLVLAEALTLLEEAK
B8: GBRAP_57_6467 (protein)
chain: MSALERVEAHAARALALLEAGAPREEVLAEVRAALEELSRETLLDIALILDPSTSEDASREELIARLLEIFARALEEEGPEAARRMLDLMVGEAEMEASE

GABARAP, O95166, sequence (O95166 whole entry, the tested form may be a part): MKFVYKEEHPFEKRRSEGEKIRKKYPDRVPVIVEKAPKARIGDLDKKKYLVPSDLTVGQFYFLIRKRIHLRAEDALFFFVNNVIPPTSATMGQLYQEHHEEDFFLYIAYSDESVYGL

The experiment deals with GABARAP, O95166. As to the kind of experiment: median log2 fold change of GCK-ALFA target abundance (FLAG IP / Myc IP barcode read proportion) (log2 ratio); each designed protein is fused to an ALFA-tag nanobody in HEK293 cells to bring the named protein to FLAG-tagged glucokinase (GCK); Myc marks an untargeted standard; higher = target protein stabilised (more abundant). The note with it: target protein: 3xFLAG-MCP-GCK-ALFA reporter; HEK293 landing pad (RPLP). Put shortly:
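Binders fused to an ALFA nanobody were recombined as a library into HEK293 landing-pad cells, which were induced with 2 μg mL^−1 doxycycline and then transfected to express a FLAG-tagged target and a Myc-tagged standard. After 48 h, circular RNA barcodes recovered by anti-FLAG and anti-Myc immunoprecipitation of lysates were reverse transcribed, amplified and sequenced. Each binder's target abundance is the median log2 ratio of FLAG to Myc barcode read proportions, from barcodes present at ≥10^−7 in both replicates, binders carrying ≥3 barcodes per replicate, a 10^−6 pseudocount and pooled replicates.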
With B1, the “median log2 fold change” value is -0.138. Regarding B2, the “median log2 fold change” value is -1.1. The value for B3 was -0.16; that for B4 was -0.16.

As for B5, the “median log2 fold change” value turned out to be 0.264. B6: the “median log2 fold change” value is -0.102.

For the molecule B7, the “median log2 fold change” value amounted to 0.0418.

For the molecule B8, the “median log2 fold change” value was found to be 0.175.
